Measured values from the RNAGym collection of RNA variant scans (doi:10.1073/pnas.2313332121).
This sample is rich in variants without activity.

B1: TPR 5TU (parent)
chain: GGAUCUUCUCGAUCUAACAAAAAAGACAAAUCUGCCACAAAGCUUGAGAGCAUCUUCGGAUGCAGAGGCGGCAGCCUUCGGUGGCGCGAUAGCGCCAACGUUCUCAACUAUGACACGCAAAACGCGUGCUCCGUUGAAUGGAGUUUAUCAUG

Variants of: B1
Assay: polymerase ribozyme fitness, log enrichment relative to wild type (log ratio); higher = more active; in vitro selection for triplet polymerase activity
Procedure, shortened: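 Input and output libraries were sequenced on Illumina after a single in vitro selection round, run in triplicate on PCR-built, transcribed mutant libraries of each subunit of a heterodimeric triplet polymerase ribozyme. Selection annealed libraries to a biotinylated primer, the partner subunit and triplets, incubated them frozen at −7 °C, then gel-excised extended constructs for streptavidin-bead capture and RT-PCR. Genotypes with ≥10 input reads and ≥1 read per output were kept. Fitness is the logarithm, taken in base 2, of genotype enrichment divided by wild-type enrichment, using inverse-variance-weighted replicate averages.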

Row | Variant | polymerase ribozyme fitness (log ratio)
1 | GGAUCUUCUCUAUCUAACAAAAAAGACAAAUCUGCCACAAAGCUUGAGAGCAUCUUCGGAUGCAGAGGCGGCAGCCUUCGGUGGUGCGAUAGCGCCAACGUUCUCAACUAUCACACGCAAAACGCGUGCUCCGUUGAAUGGAGUAUAUCAUG | ≤ -4.2
2 | GGAUCUUCUCUAUCUAAGAAAAAAGACAAAUCUGCCACAAAGCUUGAGAGCAUAUUCGGAUGCAGAGGCGGCAGCCUUCGGUGGCGCAAUAGCGCCAACGUUCUCAACUAUGACACGAAAAACGCGUGCUCCGUUGAAUGGAGUUUAUCAUG | ≤ -4.2
3 | GGAUCUUCUCUAUCUAACAAAAUAGACAAAUUUGCCACAAAGCUUGAGAGCAUCUUUAGAUGCAGAGGCGGCAGCCCUCGGUGGCGCGAUAGGGCUUACUUUCUCAACUUUGACACGCAAAACGCGUGCUCCGUUGAAUGGACUUUAUCAUG | ≤ -4.2
4 | GGAUCUUCUCUAUCUAACAAAAAAGACAAAUCUGCCACACAGCUUGAGAGCUUCUUCGGAUGCAGAGCCGGCAGCCUUCGGUGCCGCGAUGGCGCCAACGUUCUCAACUAUGACACGAAAAACGCGUGCUUCGUUGAAUGGAGUUUAUCAUG | ≤ -4.2
5 | GGAUCUUCUCUAUCUAACAAAAAAGACACAUCUGCCACAAAGCUUGAGAGCAUCUACGGAUGCAGAGGCGGCAGCCUUCGAUGGCGCGAUAGCUCCAACGUUCGCAACUAUGACACGCAACACGCGUGCUCCGUUGGAUGGAGUUUAUCAAG | ≤ -4.2
6 | GGAUCUUCUCUAUCUAACAAAAAAGACAAAUCUGCCACAAACCUUGAGAGCAUCUUCGGAUGCAGAGACGGCAGCCUUCGGUGGUGCGAUAGCGCCAACGUUCUCAACUAUGACACGCAAAACGCGUUCUCGGUUGAAGGGAGUUUAACAUG | ≤ -4.2
7 | GGAUCUUCUCUAUCUAACAAAAAAGACAAAUUUGCCACAAAGCUUGAGACCAUCUUCGGAUGCAGAGGCGGCAGCCUUCGGUGGCCCGAUAGCGCCAACGUUCUCAACUAUGACACGCAAAACGCGUGCUCCGUUGAAUGGAGUUUAUCAUG | ≤ -4.2
8 | GGAUCUUCUCUAUCUAACAAAAAAGACAAAUCUGCCACAAAGCUUGAGAGCAUCUUCGGAUGCAGAGGUGGCAGCCUUCGGUGGCGCGAUAGCGCCAACGUUCUCAACUAUGACACGCAAAACGCGUGCUCCGCUGAAUGGAGUUUAUCAUG | -1.33
9 | GGAUCUUCUCUAUCUAACAAAAAAGACAAAUCUGCCACAAAGCUUGAGAUCAUCUUCGGAUGCAGAGACGGCAGCCUUCGGUGUCGCGAUAGCGCCAACGUUCUCAACUAUGAUUCGCAAAACGCGUGCUCCGUUAAAUGGAGUUUAUCAUG | ≤ -4.2
10 | GGAUCUUCUCUAUCUAACAAAAAAGUCAAAUCUGCCACAAACCUUGAGAGCAUCUUCGGAUGCAGAGGCGGCAGCCUUCGGUGACGCGGUAACGCCAACGUUCUCAACUAUGACACGCAAAACGCGUGCUACGUUGAAUGGAGUUUAACAUG | ≤ -4.2
11 | GGAUCUUCUCUAUGUAACAGAAAAGAGAAAUCUGCCACAAAGCUUGAGAGCUUCUUCGGAUGCAGAGGCGGCAGCCUUCAGUGGCGCGAUAGCGCCAACGUUCUCAACUAUGACACGCAUAACGCGUGCUCCGUUGAAUGUAGGUUAUCAUG | ≤ -4.2
12 | GGAUCUUCUCUAUCUAAUAAAAAAGACAAAUCUGCCACAAAGCUUGAGAGCAUCUUCGGAUGCAGAGGCGGCAGCCUUCGGUGUCGCGAUAGCGCCAACGUUCUCAACUAUGACACGCAAAACGCGUGCUCCGUUGAAUGGAGUUUAUCAUG | -3.2
13 | GGAUCUUCUCUAUCUAACAAAAAAGACAAAUCUGCCAAAAAGCUUGAGAGCAUCUUCGGAUGCAGAGGCGGCAGCCUUCGGUGGCGCGAUAUCGCCAACGUUCUCAACUAUGACACGCAAAACGCGUGCUCCGUUGAAUCGAGUUUGUCAUC | ≤ -4.2
14 | GGAUCUUCUCUAUCUAACAAAAAAGACAAAUAUGCCACAAAGCUUGAGAACAUCUUCGGAUGCAGAGGCGGCAGCCUUCGGUGGCGCGAUAGCGCCAACGUUCUCAACUAUGACAUGCAAUACGCGUGCUCUGUUGAAUGGAGGUUAUCAUG | ≤ -4.2
15 | GGAUCUUCUCUAUCUAACAAAAAAGACAAAUCUGCCACAAAGCUUAAGAGCAUCUUCGGAUGCAGAGGCGGCAGCCUUCGGUUGCGCGAUAGCGCCCACGUUCUCAACUAUGACAGGCAAAACGCGUGCUCCGUUGAAUGGAGUUUAUCAUG | ≤ -4.2
16 | GGAUCUUCUCUAUCUAACAAAAAAGACAAAUCUGCCACAAAGCUUGAGAGCAUCUUCGGAUGCAGAGGCGGCAGUCUUGGGUGGCGUGAUAGCGCCAACGUUCUCAACUAUGACACGCAAAACGCGUGCUCCGUUGAAUGGAGUUUAUCAUG | ≤ -4.2
17 | GGAUCUUCUCUAUCUAACAAAAAAGACAAAUCUGCCAAACAGCUUGAGAGCAACUUCAGAUGCAGAGGCGGCAGCCUUCGGUGGCGCGAUAGCGCCAACGUUCUCAACUAUGACACGCAAAACGCGUGCUCCGUUGAAUGGAGUUUAUCAUG | -3.76
18 | GGAUCUUCUCUAUCUAACAAAAAAGACAAAUCUGCCACAAAUCUUGAGAGCAUCUUCGGAUGCAGAGACGGCAGCCUUCGGUGGCUCGAUAGCGGCAACGUUCUCAACUAUGACACGCAAAACGCGUGCUCCGUUGCAUGGAGUUUAUCAUG | ≤ -4.2
19 | GGAUCUUCUCUAUUUAACAAAAAAGACAAACCUGCCACAAGGCUUGAGAGCAUCUUCGGAUGCAGAGGCGGCAGCCUUCGGUGGCUCGAUAGCGCCAACGUUCUCAAAUAUGACACGCAAAACGAGUGCUCCGUUGAAUGGAGUUUAUCAUG | ≤ -4.2

Row | Variant | polymerase ribozyme fitness (log ratio)
20 | GGAUCUUCUCUAUCUAACAAAAAAGACAAAUCUGCCACAAAGCUUGAGACCAGCUACGCAUGCAGAGGCGGCAGCCUUCGGUGGCGCGAUAGCGUCAACGUUCUCAACUAUGACACGCAAAACGCGUGCUCCGUUGAAUGGAGUUUAUCAUG | ≤ -4.2
21 | GGAUCUUCUCUAUCUAACAAAAAAGACACAUCUGCCACAAAGCUUGAGAGCAUGUUCGGAAGCAGAGGCGGCAGCCUUCGGUGGCGCGAUAGCGUCAACGUUCUCAACUAUGACACGCAAAACGCGUGCUCCGUUGAAUGGAGUUUAUCAUG | ≤ -4.2
22 | GGAUCUUCUCUAUCUAACAAAAAAGACAAAUCUGCCACGAAGCUUGGGAGCAUCUUCGGAUGCAGAGGCGGCAGCCUUCGGUAGCGCGAUAGCGCCAACGUUCUCAACUAUGACACGCAAAACGCGUGCUCCGUUGAAUGGGGUUUAUCAUG | ≤ -4.2
23 | GGAUCUUCUCUAUCUAACAAAAUAGACAAAUCUGCCACAAAGCUUGAGAGCAUCUUCGGAUGCAGAGACGGCAGCCUUCGGUGGCGCGAUAGCGCCAACGUUCUCAACUAUGACACGCAAAACGCGUGCGCCGUCGAAUGGAGUUUAUCAUG | ≤ -4.2
24 | GGAUCUUCUCUAUCUAACAAAAAAGACAAAUCUGCCACAAAACUUGAGAGCAUCUUCGGAUGCAGAGGCGGCGGCCUUCGGUGGCGCGAUAACGCCAACGUUCUCAACUAUGACACGCAAAACGCGUGCUCCGUUGAAUGGAGUUUAUCAUG | ≤ -4.2
25 | GGAUCUUCUCUAUCUAACAAAAAAGACAAAUCUGUCACAAAGCUUGAGAGUAUCGUCGUAUGCAGAGACGGCAGCCUUCAGUAGCGCGAUAGCGCCAACGUUCUCAACUAUGACACGCAAAACGCGUGCUCCGUUGAAUGGAGUUUAUCAUG | ≤ -4.2
26 | GGAUCUUCUCUAUCUAACAAAAAAGCCAAAUCUGCCACAAAGCUUGAAAGCAUCUUCGGCUGCAGAGGCGGCAGCCUUCAGUGGGGCGAUAGCGCCAACGUUCUCAACUAUGACACGCACAACGCGUGCUCCGUUGAAUGGACUUUAUCAUG | ≤ -4.2
27 | GGAUCUUCUCUAUCUAACAAAAAAGACAAAUCUGCCACAAAGCUUGAGAGCAUCUUCGGAUGCACAGGCGGCAGCCUUCGGUGGCGCGAUAUCGCCAACGUUCUCAACUAUGACACGCAAAACGCGUGCUCCGUUGAAUGAAGUUUAUCAUG | ≤ -4.2
28 | GGAUCUUCUCUAUCUAACAAAAAAGACAAAUCUGCCACAAAGCUUGAGAGCAUAUUCGGAUGCAGAGGCGGCAGCCUUCGGUGGCGCGAUAGGGCCAAGGUUCUCAACUAUGACACGCAAAACGCGUGCUCCGUUGAAUGUAGUUUAUCAUG | ≤ -4.2
29 | GGAUCUUCUCUAUGUAACAAAAAAGACAAAUCUGCCACAAAGCUUAAGAGCAUCAUCGGAUGCAGAGGCGGCAGCCUUCGGUGGCGUGAUAGCGCCAACGUUCUCAACUAUGACACGCAAAACGCGUGCUCCGUUGAAUGGAGUUUAUCAUG | ≤ -4.2
30 | GGAUCUUCUCUAUCUAACAAAAAAGACAAUUCUGUCACAAAGCUUGAGAGCAUCUUCGGAUGCAGAGGUGGCAGCCUUCGGUAGCGCGAUCGCGCCAUCGUUCUCAACUAUGACACGCAAAACGCGUGCUCCGUUGAAUGGAGUUUAUCAUG | ≤ -4.2
31 | GGAUCUUCUCUAUCUAACAAAAAAGACAUAUCUGCCACAAAGCUUGAGCGCAUCUACGGAUGCAGAGGCGGCAGCCUUCGGUGGCGAGAUAGCGCCAACGUUCUCAACUAUGACACGCAAAACGCGUGUUCCGUUGAAUGGAGUUUAUCAUG | ≤ -4.2
32 | GGAUCUUCUCUAUCUAACAAAAAAGGCAAAUCUGCCACAAAGCUUGAGAGCGUCUUCGGAUGCAGAGGCGGCAGCCUUCGAUGACGCGAUAGCGCCAACGUUCUCAACUAUGACACGCAAAACGCGUGCUCCGUGGAAUGAAGUUUAUCAUG | ≤ -4.2
33 | GGAUCUUCUCUAUGUAACAAAAAAGGCAAAUCGGCCACAAAGCUUGAGAGCAUCUUAGGAUGCAGAGGCGGCAGCCUUCGGUGGCGCGAUAGCGCCAAGGUUCUCAACUAUGACACGCAGAACGCGUGCUCCGUUGAAUGGAGUUUAUCAUG | ≤ -4.2
34 | GGAUCUUCUCUAUCUAACAAAAAAGACAAAUCUGCCACAAAGCUUGAGAGCAUAUUCGGAUGCAGAGGCGGCAGCCUUCGGUGGCGGGAUAGCGCCAGCGUUCUCAACUAUGACACGCAAAACGCGUGCUCCGUUGAAUGGAGUUUAUCAUG | ≤ -4.2
35 | GGAUCUUCUCUAUCUAACAAAAAAGACAAAUCUGCCACAAAGCUUGAGAGCAUCUUCGGAUGCAGUGGCGGCAGCCUUCGGUGGCGCUAUAGCGCCAACGUUCUCAUCUAUGACACGCAAAACGCGUGCUCCGUCGAAUGGAGUUUAUCAUG | ≤ -4.2
36 | GGAUCUUCUCUAUCUAACAAAAAAGACAAAUCUGCCACAAAGCUUGAGAGCAUCUUCGGAUGCAGAGGCGGCAGCCUUCGGUGACGCGACAGCGCCAACGUUCUCAACUAUGACACGCGAAACGAGUGCUCCGUUGAAUGGAGUUUAUCAUG | ≤ -4.2
37 | GGAUCUUCUCUAUCUAACAAAAAAGACAAAUCUGCGACAAAGCUUGAGAGCAUCUUCGGAUGCAGAGGCGGCAGCCUUCGGUGGCGCGAUAGCGACAACGUUCUCAACUAUGACACGCAAAACGCGUGCUCCGUUGAAUGGAGUUUAUCAUG | ≤ -4.2
38 | GGAUCUUCUCUAUCUAACAAAAAAGACAAAUUUGCCACAAAGCUUGAGAACAUCUUCGGAUGCAGAGGCGGCAGCCUUCAGUGGCGCGAUAGCGCCAACGUUAUCAACUAUGACACGCAAAACGCGUGCUCCGUUGAAUGGAGUUUAUCAUG | ≤ -4.2
